# Laboratory results: PubChem BioAssay (Tox21)
# This list was built around the results that the source calls inconclusive (neither active nor inactive); the mix of calls is not that of the screen. For part of these data: No potency is given beside an inconclusive call; the fits are too rough. Calls of active or inactive are those of the source. Unless noted, calls follow the shape of the dose curve; as a rule, active = well fitted curve in the direction sought with a large enough effect in the repeat runs; inconclusive = weak or mixed curves; inactive = no such curve, though single readings can be large; an effect the other way counts as inactive or inconclusive.
# How the values were obtained:
# [1] = qHTS assay for small molecule agonists of the p53 signaling pathway - cell viability (AID 651633; calls by dose curve; also: nearly all actives have a fitted effect of over 30% in size; also: potency is read from the fitted curve at half-maximal effect; as to activity change, negative = cytotoxicity: % is scaled to controls: 0 for no effect and ±100 for the full control effect)
# Method in brief: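 p53RE-bla cells were treated with compound for 16 hours at 37 C. Cytotoxicity was then measured as CellTiter-Glo luminescence after 30 min at room temperature.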
# [2] = qHTS assay for small molecule disruptors of the mitochondrial membrane potential (AID 720635); conditions: HepG2 mitochondrial membrane potential, Mito-MPS dye ratio; ratio activity, negative = MMP loss: at 83.2 µM (top of the series) unless noted; also: potency is read from the fitted curve at half-maximal effect; as to ratio activity, negative = MMP loss: % is scaled to controls: 0 for no effect and ±100 for the full control effect
# Method in brief: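 HepG2 cells exposed to compound 1 hr at 37C, then Mito-MPS dye 30 min. Ratio read of aggregate (540/590 nm) versus monomer (490/535 nm) fluorescence.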
# [3] = qHTS assay for identifying genotoxic compounds that show differential cytotoxicity against isogenic chicken DT40 cell lines with known DNA damage response pathways - Rev3 mutant cell line (AID 743014); conditions: chicken DT40 Rev3-/- viability, CellTiter-Glo, 40 h; activity, negative = cytotoxicity: at 68.4 µM (top of the series) unless noted; also: nearly all actives have a fitted effect of over 55% in size; also: potency is read from the fitted curve at half-maximal effect; as to activity, negative = cytotoxicity: % is scaled to controls: 0 for no effect and ±100 for the full control effect
# [4] = biological target: Peroxisome proliferator-activated receptor gamma (Homo sapiens) (UniProt P37231); test: qHTS assay to identify small molecule agonists of the peroxisome proliferator-activated receptor gamma (PPARg) signaling pathway (AID 743094; active = well fitted activation curve with a large enough effect in the signal ratio in the repeat runs, not every such curve was filed as active; inconclusive = weak or mixed curves, or effect the other way; inactive = no such curve, though single readings can be large or run the other way; the % refers to the signal ratio; also: potency is read from the fitted curve at half-maximal effect); conditions: HEK293H PPARg-UAS-bla, beta-lactamase FRET ratio, 17 h; activation: at 57 µM (top of the series) unless noted
# UniProt P37231, sequence (P37231 whole entry, looked up): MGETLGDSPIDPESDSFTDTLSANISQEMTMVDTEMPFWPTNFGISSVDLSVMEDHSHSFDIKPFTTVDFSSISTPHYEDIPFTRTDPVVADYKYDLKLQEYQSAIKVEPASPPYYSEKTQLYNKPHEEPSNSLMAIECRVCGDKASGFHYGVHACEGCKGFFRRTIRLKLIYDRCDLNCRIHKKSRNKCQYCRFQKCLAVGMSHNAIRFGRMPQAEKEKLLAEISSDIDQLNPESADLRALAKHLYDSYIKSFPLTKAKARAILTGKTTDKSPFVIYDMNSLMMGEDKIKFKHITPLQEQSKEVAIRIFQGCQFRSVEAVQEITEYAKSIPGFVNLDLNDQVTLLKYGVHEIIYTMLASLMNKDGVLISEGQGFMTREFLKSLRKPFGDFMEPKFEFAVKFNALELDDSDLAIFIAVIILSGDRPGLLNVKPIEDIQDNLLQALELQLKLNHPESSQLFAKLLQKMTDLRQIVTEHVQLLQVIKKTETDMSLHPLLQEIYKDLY
# Method in brief: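 Quantitative HTS agonist mode: stable HEK293H line with UAS-beta-lactamase reporter under PPARg control, 17 h compound exposure at 37C, fluorescence after 1 h FRET substrate loading at room temperature.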
# [5] = qHTS assay for small molecule agonists of the p53 signaling pathway (AID 651631; calls by dose curve; also: nearly all actives have a fitted effect of over 15% in size; also: potency is read from the fitted curve at half-maximal effect); conditions: HCT-116 p53RE-bla reporter, beta-lactamase FRET ratio, 16 h; activation: at 73.3 µM (top of the series) unless noted
# Method in brief: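 HCT-116 cells carrying a beta-lactamase reporter under p53 response elements were dosed with compound for 16 h at 37 °C. LiveBLAzer B/G FRET substrate was then added for 2 h at room temperature, and fluorescence intensity was read to detect pathway agonism.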
# [6] = qHTS assay to identify small molecule antagonists of the thyroid receptor (TR) signaling pathway - cell viability counter screen (AID 743064); conditions: GH3.TRE-Luc viability, CellTiter-Fluor, 24 h; activity change, negative = cytotoxic: at 70.3 µM (top of the series) unless noted; also: % is scaled to controls: 0 for no effect and ±100 for the full control effect; nearly all actives have a fitted effect of over 50% in size
# Method in brief: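 GH3.TRE-Luc rat pituitary cells dosed after 4 hr plating, co-stimulated with T3 at 1 nM final, incubated 23.5 h at 37 C. Viability measured in the same wells by CellTiter-Fluor fluorescence after 30 min further at 37 C.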
# [7] = qHTS assay for small molecules that induce genotoxicity in human embryonic kidney cells expressing luciferase-tagged ATAD5 (AID 651632); also: nearly all actives have a fitted effect of over 15% in size; also: potency is read from the fitted curve at half-maximal effect
# Method in brief: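 Increased luciferase signal from ATAD5-tagged reporter cells indicates DNA-damage-driven ATAD5 induction. HEK293T cells are treated for 16 hr at 37C before detection with Amplite.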
# [8] = qHTS assay to identify small molecule antagonists of the androgen receptor (AR) signaling pathway - cell viability counter screen (AID 743033; also: nearly all actives have a fitted effect of over 45% in size; also: potency is read from the fitted curve at half-maximal effect); conditions: AR-bla HEK293 viability, CellTiter-Glo luminescence, 16 h; activity change, negative = cytotoxicity: at 58.5 µM (top of the series) unless noted
# [9] = biological target: Androgen receptor (Homo sapiens) (UniProt P10275); test: qHTS assay to identify small molecule agonists of the androgen receptor (AR) signaling pathway (AID 743036; active = well fitted activation curve with a large enough effect in the signal ratio in the repeat runs, with a control signal flat, not every such curve was filed as active; inconclusive = weak or mixed curves, or effect the other way; inactive = no such curve, though single readings can be large or run the other way; the % refers to the signal ratio; also: potency is read from the fitted curve at half-maximal effect); conditions: HEK293 AR-UAS-bla GripTite, beta-lactamase FRET ratio, 16 h; activation: at 62.4 µM (top of the series) unless noted
# UniProt P10275, sequence (P10275 whole entry, looked up): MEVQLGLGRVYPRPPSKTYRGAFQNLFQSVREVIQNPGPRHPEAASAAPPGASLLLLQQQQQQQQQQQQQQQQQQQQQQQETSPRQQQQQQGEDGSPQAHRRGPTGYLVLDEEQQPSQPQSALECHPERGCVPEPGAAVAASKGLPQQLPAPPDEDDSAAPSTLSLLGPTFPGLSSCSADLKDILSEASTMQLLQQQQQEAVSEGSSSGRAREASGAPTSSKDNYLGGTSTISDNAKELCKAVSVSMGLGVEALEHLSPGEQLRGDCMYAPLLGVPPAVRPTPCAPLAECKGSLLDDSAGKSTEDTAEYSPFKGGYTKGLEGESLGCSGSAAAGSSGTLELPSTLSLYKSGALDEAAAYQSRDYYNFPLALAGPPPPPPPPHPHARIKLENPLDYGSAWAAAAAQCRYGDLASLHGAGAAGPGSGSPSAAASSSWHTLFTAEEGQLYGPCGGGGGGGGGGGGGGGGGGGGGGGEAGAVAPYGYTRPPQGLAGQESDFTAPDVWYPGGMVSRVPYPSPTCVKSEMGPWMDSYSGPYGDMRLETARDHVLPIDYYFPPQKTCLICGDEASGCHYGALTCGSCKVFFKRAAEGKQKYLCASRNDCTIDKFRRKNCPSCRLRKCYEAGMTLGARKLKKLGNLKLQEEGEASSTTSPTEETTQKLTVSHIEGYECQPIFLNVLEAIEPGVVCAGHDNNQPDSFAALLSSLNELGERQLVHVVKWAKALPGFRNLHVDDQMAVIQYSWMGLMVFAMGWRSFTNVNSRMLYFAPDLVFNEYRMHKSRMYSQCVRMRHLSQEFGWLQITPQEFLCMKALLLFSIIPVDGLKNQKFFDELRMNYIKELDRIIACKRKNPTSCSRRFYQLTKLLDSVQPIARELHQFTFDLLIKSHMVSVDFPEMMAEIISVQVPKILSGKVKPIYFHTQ
# Method in brief: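 AR-UAS-bla HEK293 cells, plated 4 h before dosing, were treated with compound for 16 h at 37C. beta-Lactamase reporter read after 2 h with LiveBLAzer B/G FRET substrate at room temperature.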
# [10] = biological target: Estrogen receptor (Homo sapiens) (UniProt P03372); test: qHTS assay to identify small molecule agonists of the estrogen receptor alpha (ER-alpha) signaling pathway using the BG1 cell line (AID 743079); conditions: BG1Luc4E2 cells, ERE-luciferase agonist, 22 h; activation: at 70.3 µM (top of the series) unless noted; also: nearly all actives have a fitted effect of over 20% in size; also: potency is read from the fitted curve at half-maximal effect
# UniProt P03372, sequence (P03372 whole entry, looked up): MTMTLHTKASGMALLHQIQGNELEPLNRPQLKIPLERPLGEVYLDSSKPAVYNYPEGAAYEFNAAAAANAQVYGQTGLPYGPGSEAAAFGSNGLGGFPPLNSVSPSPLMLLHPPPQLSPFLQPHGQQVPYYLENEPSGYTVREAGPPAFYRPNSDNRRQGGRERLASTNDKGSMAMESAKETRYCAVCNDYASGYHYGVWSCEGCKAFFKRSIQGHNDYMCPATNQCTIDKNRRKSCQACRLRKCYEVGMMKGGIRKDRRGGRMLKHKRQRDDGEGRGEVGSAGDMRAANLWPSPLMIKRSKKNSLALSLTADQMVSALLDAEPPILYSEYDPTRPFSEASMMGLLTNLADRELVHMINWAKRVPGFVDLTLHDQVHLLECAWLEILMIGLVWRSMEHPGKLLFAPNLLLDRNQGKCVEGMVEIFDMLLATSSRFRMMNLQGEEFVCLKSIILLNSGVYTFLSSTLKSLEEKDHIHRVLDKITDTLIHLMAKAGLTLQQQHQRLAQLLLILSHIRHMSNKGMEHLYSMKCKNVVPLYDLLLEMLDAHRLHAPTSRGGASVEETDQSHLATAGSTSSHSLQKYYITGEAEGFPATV
# [11] = qHTS assay to identify small molecule antagonists of the estrogen receptor alpha (ER-alpha) signaling pathway using the BG1 cell line - cell viability counter screen (AID 743081); conditions: BG1Luc4E2 viability, CellTiter-Fluor, 22 h; activity change, negative = cytotoxicity: at 70.3 µM (top of the series) unless noted;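 also: compound given together with 17beta-estradiol as the ER stimulus; potency is read from the fitted curve at half-maximal effect; nearly all actives have a fitted effect of over 45% in size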
# [12] = qHTS assay for small molecule disruptors of the mitochondrial membrane potential - cell viability (AID 720634; calls by dose curve;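 also: human HepG2 liver cancer cells; % is scaled to controls: 0 for no effect and ±100 for the full control effect; nearly all actives have a fitted effect of over 20% in size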)
# Method in brief: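 After overnight attachment at 37 C, HepG2 cells received compound or DMSO vehicle for 1 hr. Viability is then taken from ATP-driven luminescence following a 30 min room-temperature CellTiter-Glo step.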
# [13] = qHTS assay to identify small molecule antagonists of the estrogen receptor alpha (ER-alpha) signaling pathway using the BG1 cell line (AID 743080; calls by dose curve;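 also: BG1 cells stimulated with 17beta-estradiol alongside compound; nearly all actives have a fitted effect of over 25% in size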; also: potency is read from the fitted curve at half-maximal effect); conditions: BG1Luc4E2 ERE-luciferase antagonist mode, luminescence; activity change, negative = inhibition: at 70.3 µM (top of the series) unless noted
# Method in brief: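 BG1Luc4E2, endogenous ER-alpha, 4xERE-luc; 5 d charcoal-stripped FBS, phenol red free; 24 h plating; cpd + 17beta-estradiol 21.5 h, 37 C/5% CO2; CellTiter-Fluor viability 30 min, then ONE-Glo luciferase 30 min RT.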
# [14] = biological target: Glucocorticoid receptor (Homo sapiens) (UniProt P04150); test: qHTS assay to identify small molecule agonists of the glucocorticoid receptor (GR) signaling pathway (AID 720691; active = well fitted activation curve with a large enough effect in the signal ratio in the repeat runs, not every such curve was filed as active; inconclusive = weak or mixed curves, or effect the other way; inactive = no such curve, though single readings can be large or run the other way; the % refers to the signal ratio; also: potency is read from the fitted curve at half-maximal effect); conditions: GR-bla HeLa, beta-lactamase reporter ratio, 18 h; activation: at 62.4 µM (top of the series) unless noted
# UniProt P04150, sequence (P04150 whole entry, looked up): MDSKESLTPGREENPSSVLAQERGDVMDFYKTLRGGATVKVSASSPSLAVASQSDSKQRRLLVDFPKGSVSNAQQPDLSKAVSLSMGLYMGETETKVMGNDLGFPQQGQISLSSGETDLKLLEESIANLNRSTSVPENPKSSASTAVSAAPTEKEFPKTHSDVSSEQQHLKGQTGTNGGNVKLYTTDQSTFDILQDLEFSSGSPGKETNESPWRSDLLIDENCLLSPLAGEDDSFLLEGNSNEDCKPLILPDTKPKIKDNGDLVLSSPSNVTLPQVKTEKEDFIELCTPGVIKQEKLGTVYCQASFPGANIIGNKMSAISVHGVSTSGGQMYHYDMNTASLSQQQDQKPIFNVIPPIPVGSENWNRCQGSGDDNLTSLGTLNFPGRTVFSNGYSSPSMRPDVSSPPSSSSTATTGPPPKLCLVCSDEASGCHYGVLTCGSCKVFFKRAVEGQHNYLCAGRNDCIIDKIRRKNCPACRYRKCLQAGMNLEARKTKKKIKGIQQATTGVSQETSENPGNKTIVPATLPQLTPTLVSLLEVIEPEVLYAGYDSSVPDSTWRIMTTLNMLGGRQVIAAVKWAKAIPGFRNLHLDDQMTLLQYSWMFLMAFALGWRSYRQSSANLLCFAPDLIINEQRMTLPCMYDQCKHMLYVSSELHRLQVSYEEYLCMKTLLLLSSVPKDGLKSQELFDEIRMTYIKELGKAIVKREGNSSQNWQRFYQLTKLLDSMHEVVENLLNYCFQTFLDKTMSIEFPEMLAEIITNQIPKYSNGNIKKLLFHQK
# Method in brief: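 Agonist mode in a HeLa line carrying a GRE-controlled beta-lactamase reporter. Compounds act for 18 h at 37 C before a 2 h room-temperature FRET substrate step and fluorescence reading.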
# [15] = biological target: Estrogen receptor (Homo sapiens) (UniProt P03372); test: qHTS assay to identify small molecule antagonists of the estrogen receptor alpha (ER-alpha) signaling pathway (AID 743069; active = well fitted curve in the direction sought with a large enough effect in the signal ratio in the repeat runs, not every such curve was filed as active; inconclusive = weak or mixed curves, or effect the other way; inactive = no such curve, though single readings can be large or run the other way; the % refers to the signal ratio; also: potency is read from the fitted curve at half-maximal effect); conditions: HEK293 ER-alpha-UAS-bla, beta-lactamase ratio, antagonist mode; activity, negative = inhibition: at 69.4 µM (top of the series) unless noted
# Method in brief: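 Reporter cells (ER-alpha-bla, HEK293 background) are conditioned overnight in stripped-serum medium (2% charcoal-stripped FBS). Compound and 17beta-estradiol exposure runs 18 hr at 37C, 5% CO2.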
# [16] = qHTS assay for identifying genotoxic compounds that show differential cytotoxicity against isogenic chicken DT40 cell lines with known DNA damage response pathways - Rad54/Ku70 mutant cell line (AID 743015); conditions: DT40 Rad54/Ku70 mutant viability, CellTiter-Glo, 40 h; activity change, negative = cytotoxicity: at 66.8 µM (top of the series) unless noted; also: potency is read from the fitted curve at half-maximal effect; nearly all actives have a fitted effect of over 60% in size
# [17] = biological target: Glucocorticoid receptor (Homo sapiens) (UniProt P04150); test: qHTS assay to identify small molecule antagonists of the glucocorticoid receptor (GR) signaling pathway (AID 720692; active = well fitted inhibition curve with a large enough effect in the signal ratio in the repeat runs, not every such curve was filed as active; inconclusive = weak or mixed curves, or effect the other way; inactive = no such curve, though single readings can be large or run the other way; the % refers to the signal ratio; also: % is scaled to controls: 0 for no effect and ±100 for the full control effect); conditions: GR-bla HeLa, beta-lactamase FRET ratio, dexamethasone-stimulated, 18 h; activity change, negative = inhibition: at 58.5 µM (top of the series) unless noted
# Method in brief: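 Cells plated, rested 4 h at 37 C/5% CO2; compounds in DMSO pin-transferred; dexamethasone added to 5 nM final; 18 h at 37 C; B/G FRET substrate added, 2 h room temperature; fluorescence measured.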
# [18] = qHTS assay to identify small molecule antagonists of the thyroid receptor (TR) signaling pathway (AID 743065); also: nearly all actives have a fitted effect of over 55% in size; also: potency is read from the fitted curve at half-maximal effect
# Method in brief: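 GH3.TRE-Luc rat pituitary cells (two TREs driving luciferase) were dosed with compound, then stimulated with 1 nM T3 (final) for 23.5 h at 37 C. ONE-Glo luminescence was the read-out, with CellTiter-Fluor fluorescence as the cytotoxicity counter-screen.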
# [19] = qHTS assay for identifying genotoxic compounds that show differential cytotoxicity against isogenic chicken DT40 cell lines with known DNA damage response pathways - wild type cell line (AID 743012); conditions: DT40 wild type chicken cells viability, CellTiter-Glo, 40 h; activity change, negative = cytotoxicity: at 68.4 µM (top of the series) unless noted; also: potency is read from the fitted curve at half-maximal effect; nearly all actives have a fitted effect of over 60% in size
# Method in brief: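 Cells (DT40 wild type, 300/well) are treated with DMSO-dissolved compounds after a ~0.5 h pre-incubation and kept 40 h at 37 C/5% CO2. Viability is then measured by CellTiter-Glo luminescence following 30 min at room temperature.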
# [20] = biological target: Aryl hydrocarbon receptor (Homo sapiens) (UniProt P35869); test: qHTS assay to identify small molecule that activate the aryl hydrocarbon receptor (AhR) signaling pathway (AID 743085); also: potency is read from the fitted curve at half-maximal effect; nearly all actives have a fitted effect of over 15% in size
# UniProt P35869, sequence (P35869 whole entry, looked up): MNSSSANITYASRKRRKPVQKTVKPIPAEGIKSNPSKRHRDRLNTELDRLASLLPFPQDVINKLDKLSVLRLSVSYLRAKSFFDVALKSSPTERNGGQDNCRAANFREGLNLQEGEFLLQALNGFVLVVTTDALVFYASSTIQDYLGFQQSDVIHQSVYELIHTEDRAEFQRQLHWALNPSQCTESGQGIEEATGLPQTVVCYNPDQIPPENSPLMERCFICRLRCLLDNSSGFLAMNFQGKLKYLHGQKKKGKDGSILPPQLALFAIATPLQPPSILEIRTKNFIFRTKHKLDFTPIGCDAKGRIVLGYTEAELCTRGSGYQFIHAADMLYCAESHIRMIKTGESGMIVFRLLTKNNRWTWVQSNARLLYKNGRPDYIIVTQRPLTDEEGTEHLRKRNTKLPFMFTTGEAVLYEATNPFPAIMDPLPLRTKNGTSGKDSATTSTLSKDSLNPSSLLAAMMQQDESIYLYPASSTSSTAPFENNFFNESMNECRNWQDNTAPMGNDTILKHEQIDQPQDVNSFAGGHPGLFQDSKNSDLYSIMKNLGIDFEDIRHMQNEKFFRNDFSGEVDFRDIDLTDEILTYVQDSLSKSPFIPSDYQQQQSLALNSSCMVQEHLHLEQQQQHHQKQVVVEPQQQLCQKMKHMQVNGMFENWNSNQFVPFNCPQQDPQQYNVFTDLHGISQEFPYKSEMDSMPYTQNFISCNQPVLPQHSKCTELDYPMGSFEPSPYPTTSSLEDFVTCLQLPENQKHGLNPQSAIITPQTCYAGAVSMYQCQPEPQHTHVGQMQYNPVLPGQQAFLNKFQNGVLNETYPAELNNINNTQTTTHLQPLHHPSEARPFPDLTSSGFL
# Method in brief: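 HepG2 cells stably carrying a 20-DRE firefly luciferase reporter (HG2L7.5c1) treated with compound for 24 hr at 37C. Luciferase read by ONE-Glo luminescence, with CellTiter-Fluor viability read first.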
# [21] = qHTS assay to identify small molecule that activate the aryl hydrocarbon receptor (AhR) signaling pathway - cell viability counter screen (AID 743086);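 also: HepG2 liver cells carrying the AhR DRE luciferase reporter; % is scaled to controls: 0 for no effect and ±100 for the full control effect; nearly all actives have a fitted effect of over 45% in size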
# Method in brief: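 HepG2-AhR-luc (HG2L7.5c1) cells, 4000/well, treated 24 h at 37 C with compound; viability measured as CellTiter-Fluor fluorescence after 30 min in the same wells as the luciferase read.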
# [22] = qHTS assay for small molecules that induce genotoxicity in human embryonic kidney cells expressing luciferase-tagged ATAD5 - cell viability (AID 651634; calls by dose curve; also: potency is read from the fitted curve at half-maximal effect; nearly all actives have a fitted effect of over 25% in size)
# Method in brief: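 Cytotoxicity counterscreen in HEK293T cells bearing an ATAD5-luciferase reporter: live-cell protease activity measured by CellTiter-Fluor fluorescence after 15.5 hr compound exposure.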
# [23] = biological target: Androgen receptor (Homo sapiens) (UniProt P10275); test: qHTS assay to identify small molecule antagonists of the androgen receptor (AR) signaling pathway (AID 743035; active = well fitted inhibition curve with a large enough effect in the signal ratio in the repeat runs, not every such curve was filed as active; inconclusive = weak or mixed curves, or effect the other way; inactive = no such curve, though single readings can be large or run the other way; the % refers to the signal ratio; also: potency is read from the fitted curve at half-maximal effect); conditions: HEK293 AR-UAS-bla, R1881-stimulated, beta-lactamase FRET, 16 h; activity change, negative = inhibition: at 58.5 µM (top of the series) unless noted
# Method in brief: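 Antagonism is scored as loss of R1881-driven beta-lactamase reporter expression in HEK293 cells carrying the reporter under a UAS element, after 16 h co-treatment at 37C and a 2 h room-temperature FRET substrate read.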
# [24] = biological target: Estrogen receptor (Homo sapiens) (UniProt P03372); test: qHTS assay to identify small molecule agonists of the estrogen receptor alpha (ER-alpha) signaling pathway (AID 743075; calls by dose curve;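 also: HEK293 GripTite cells with ER-alpha and UAS-driven beta-lactamase reporter; potency is read from the fitted curve at half-maximal effect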); conditions: HEK293 ER-alpha-UAS-bla, beta-lactamase FRET ratio, 18 h; activation: at 70.1 µM (top of the series)
# Tags tell the direction and shape of the fitted curve or compound fluorescence and quenching.
smiles,measurement,setting,value
C[C@H](N)C(=O)N[C@@H](C)P(=O)(O)O,Potency,[1],inactive
same,"ratio activity, negative = MMP loss",[2],inconclusive: -1.74%
same,Potency,[3],inactive
same,Potency,[4],inactive
C[S+](C)CCC(N)C(=O)O (stereo not given),Potency,[5],inactive
same,Potency,[3],"inconclusive [rising, partial curve, poor fit]"
same,Potency,[6],inactive
Cc1ncc(C[n+]2csc(CCOP(=O)(O)OP(=O)(O)O)c2C)c(N)n1,Potency,[7],inactive
same,Potency,[2],"inconclusive [fluorescent, single point]"
same,Potency,[8],inactive
same,Potency,[9],inactive
CC(C)(CO)[C@@H](O)C(=O)NCCC(=O)NCCSSCCNC(=O)CCNC(=O)[C@H](O)C(C)(C)CO,Potency,[5],inactive
same,Potency,[8],"inconclusive [rising, full curve, poor fit]"
CC(C)NCC1CCc2cc(CO)c([N+](=O)[O-])cc2N1 (stereo not given),Potency,[5],inactive
same,Potency,[3],inactive
same,Potency,[9],inactive
same,Potency,[10],inactive
same,Potency,[11],"inconclusive [cytotoxic, partial curve, poor fit]"
same,Potency,[4],inactive
CCNC(=O)[C@@H]1CCCN1C(=O)[C@H](CCCN=C(N)N)NC(=O)[C@H](CC(C)C)NC(=O)[C@@H](CC(C)C)NC(=O)[C@H](Cc1ccc(O)cc1)NC(=O)[C@H](CO)NC(=O)[C@H](Cc1c[nH]c2ccccc12)NC(=O)[C@H](Cc1cnc[nH]1)NC(=O)[C@@H]1CCC(=O)N1,Potency,[1],inactive
same,Potency,[12],inactive
same,Potency,[13],inactive
same,Potency,[11],"inconclusive [cytotoxic, single point]"
CC(=O)Oc1c(C)cc(OCC(O)CNC(C)C)c(C)c1C (stereo not given),Potency,[7],"inconclusive [activator, partial curve, poor fit]"
same,Potency,[1],"inconclusive [cytotoxic, single point]"
same,Potency,[14],active: 21.3 µM
same,Potency,[6],inactive
same,Potency,[15],"inconclusive [activator, partial curve]"
same,Potency,[10],active: 3.76 µM
CCCCCCCCCC(=O)NO,Potency,[5],inconclusive [activator]
same,Potency,[3],"inconclusive [cytotoxic, single point]"
same,Potency,[16],"inconclusive [cytotoxic, partial curve, poor fit]"
same,Potency,[15],"inconclusive [inhibitor, partial curve, poor fit]"
same,Potency,[13],inactive
same,activation,[4],inconclusive: 6.24%
COc1ccc(/C=C/C(=O)OCCC(C)C)cc1,Potency,[7],"inconclusive [activator, partial curve, poor fit]"
same,Potency,[2],inactive
same,"activity change, negative = inhibition",[17],inconclusive: -1.49%
same,Potency,[3],inactive
same,Potency,[18],inactive
same,activation,[10],inconclusive: 1.37% [phenotype inactive]
same,Potency,[13],"inconclusive [rising, partial curve]"
O=C(O)c1cc2ccccc2c(Cc2c(O)c(C(=O)O)cc3ccccc23)c1O,Potency,[1],"inconclusive [cytotoxic, partial curve, poor fit]"
same,Potency,[2],"inconclusive [rising, partial curve]"
same,Potency,[19],"inconclusive [cytotoxic, partial curve, poor fit]"
same,Potency,[3],"inconclusive [cytotoxic, single point]"
same,Potency,[11],"inconclusive [rising, single point]"
same,Potency,[20],"inconclusive [activator, single point]"
CC(=O)Nc1c(I)c(C(=O)O)c(I)c(N(C)C(C)=O)c1I,Potency,[5],"inconclusive [activator, single point]"
same,Potency,[6],inactive
same,Potency,[21],inactive
CCC(=O)OCC(=O)[C@@]1(OC(=O)CC)[C@@H](C)C[C@H]2[C@@H]3CCC4=CC(=O)C=C[C@]4(C)[C@@]3(Cl)[C@@H](O)C[C@@]21C,Potency,[7],inactive
same,Potency,[22],"inconclusive [falling, partial curve, poor fit]"
same,Potency,[19],active: 13.3 µM
same,Potency,[23],inconclusive
same,Potency,[9],"inconclusive [falling, partial curve, poor fit]"
same,Potency,[18],"inconclusive [inhibitor, partial curve, poor fit]"
same,Potency,[24],"inconclusive [activator, partial curve]"
same,Potency,[13],"inconclusive [rising, full curve, poor fit]"
same,Potency,[4],inconclusive [single point]
